Screen size: about 3,200 compounds; about 75 (2%) showed an effect of 50% or more. Some of the results follow.

This assay deals with T1, S. aureus MSSA476.
T1 construct: MSSA476
Details: species or system S. aureus MSSA476 (TSB) or V. cholerae SAD30 (LB); 384-well bacterial growth screen at 25 uM, OD600 relative to DMSO control. As to conditions: relative growth, OD600, TSB; 25 µM; inhibitor.
As to `O=C(CCl)Nc1nc2c(s1)CCc1ccccc1-2` [6-D03, 2-chloro-N-{4H,5H-naphtho[1,2-d][1,3]thiazol-2-yl}acetamide], the “% of control remaining” value was 107.902%.
With `O=C(CCl)NC1CCC(O)(c2cccc(F)c2)CC1` (centres unmarked) [5-A11, 2-chloro-N-[4-(3-fluorophenyl)-4-hydroxycyclohexyl]acetamide] the figure was 92.8962%; with `C=CC(=O)N1CC(OCc2nc(C)no2)C1` [1-P18, 1-{3-[(3-methyl-1,2,4-oxadiazol-5-yl)methoxy]azetidin-1-yl}prop-2-en-1-one], 106.549%; with `C=CC(=O)NCCC(=O)N1CCN(c2ccccc2Cl)CC1` [3-J22, N-{3-[4-(2-chlorophenyl)piperazin-1-yl]-3-oxopropyl}prop-2-enamide], 88.4632%.
For `N#CC(=CC1=Cc2ccccc2OC1)C(=O)NCc1ccccc1` [9-F08, N-benzyl-3-(2H-chromen-3-yl)-2-cyanoprop-2-enamide], the “% of control remaining” value was determined as 121.348%.
Turning to `C=CC(=O)N1CC(NC(=O)c2ccoc2CC)C(C)(C)C1` (centres unmarked) [1-L22, N-[4,4-dimethyl-1-(prop-2-enoyl)pyrrolidin-3-yl]-2-ethylfuran-3-carboxamide], the “% of control remaining” value was determined as 111.473%.
Consider `C=CC(=O)NC1C(=O)OCC1(C)C` (centres unmarked) [1-E08, N-(4,4-dimethyl-2-oxooxolan-3-yl)prop-2-enamide], for which the “% of control remaining” value worked out at 107.253%.
Regarding `C=CC(=O)N(Cc1sc(C)nc1C)[C@@H](C)[C@H]1COC(C)(C)O1` [1-B15, N-[(1S)-1-[(4S)-2,2-dimethyl-1,3-dioxolan-4-yl]ethyl]-N-[(2,4-dimethyl-1,3-thiazol-5-yl)methyl]prop-2-enamide], the “% of control remaining” value was determined as 95.2967%.
For `CC1CCCN(Cc2ccc(CNC(=O)CCl)cc2)C1.Cl` (centres unmarked) [6-K04, 2-chloro-N-({4-[(3-methylpiperidin-1-yl)methyl]phenyl}methyl)acetamide hydrochloride], the “% of control remaining” value came out at 97.6585%.
As for `CC1CCCN(C(=O)C(NC(=O)C(C)Cl)c2cnn(C)c2)C1` (centres unmarked) [7-G12, 2-chloro-N-[1-(1-methyl-1H-pyrazol-4-yl)-2-(3-methylpiperidin-1-yl)-2-oxoethyl]propanamide], the “% of control remaining” value amounted to 89.7959%.
With `CC(Cl)C(=O)NCc1nn(-c2ccccc2)c2c1CCC2` (centres unmarked) [7-P05, 2-chloro-N-({1-phenyl-1H,4H,5H,6H-cyclopenta[c]pyrazol-3-yl}methyl)propanamide] the figure was 91.9937%.
The figure for `COc1ccc(NC(=O)c2ccccc2NC(=O)CCl)cc1` [4-L05, 2-(2-chloroacetamido)-N-(4-methoxyphenyl)benzamide] is 88.8042%.
`C=CC(=O)NCC1CCC2(CCCOC2)O1` (centres unmarked) [2-O13, N-({1,7-dioxaspiro[4.5]decan-2-yl}methyl)prop-2-enamide]: the “% of control remaining” value is reported as 103.742%.
The figure for `CSc1ccc(C=C(C#N)C(=O)Nc2ccc3c(c2)OCCO3)cc1` [9-L05, 2-cyano-N-(2,3-dihydro-1,4-benzodioxin-6-yl)-3-[4-(methylsulfanyl)phenyl]prop-2-enamide] is 120.449%.
With `C=CC(=O)NCc1cccc(CNS(C)(=O)=O)c1` [3-F11, N-{[3-(methanesulfonamidomethyl)phenyl]methyl}prop-2-enamide] the figure was 106.574%; with `CC(Cl)C(=O)NCC1c2ccccc2C(=O)N1Cc1ccccc1` (centres unmarked) [6-H20, N-[(2-benzyl-3-oxo-2,3-dihydro-1H-isoindol-1-yl)methyl]-2-chloropropanamide], 89.122%.
For `CN(CCOc1ccccc1F)C(=O)CCl` [6-C03, 2-chloro-N-[2-(2-fluorophenoxy)ethyl]-N-methylacetamide], the “% of control remaining” value is listed as 79.2195%.
Consider `COc1cc(CN(C(=O)CCl)C2CC2)ccc1O` [7-H18, 2-chloro-N-cyclopropyl-N-[(4-hydroxy-3-methoxyphenyl)methyl]acetamide], for which the “% of control remaining” value turned out to be 94.1915%.
Take `CN(C(=O)CCl)C1CCN(c2ccccc2F)C1=O` (centres unmarked) [5-A18, 2-chloro-N-[1-(2-fluorophenyl)-2-oxopyrrolidin-3-yl]-N-methylacetamide]: the “% of control remaining” value was 99.8179%.
For `N#CC(=CC=Cc1ccccc1[N+](=O)[O-])C(=O)Nc1ccccc1` [8-P20, 2-cyano-5-(2-nitrophenyl)-N-phenylpenta-2,4-dienamide], the “% of control remaining” value is 137.427%.
`C=CC(=O)NCC(C)(C)C1(O)CCOC1` (centres unmarked) [3-K13, N-[2-(3-hydroxyoxolan-3-yl)-2-methylpropyl]prop-2-enamide]: the “% of control remaining” value was 125.033%.
With `O=C(CCl)Nc1nnc(SCc2ccccc2)s1` [4-F15, N-[5-(benzylsulfanyl)-1,3,4-thiadiazol-2-yl]-2-chloroacetamide] the figure was 125.012%; with `COCCNC(=O)C(C#N)=Cc1sccc1C` [9-M17, 2-cyano-N-(2-methoxyethyl)-3-(3-methylthiophen-2-yl)prop-2-enamide], 102.172%.
With `CC(Cl)C(=O)Nc1ncc(C(F)(F)F)cc1Cl` (centres unmarked) [5-L22, 2-chloro-N-[3-chloro-5-(trifluoromethyl)pyridin-2-yl]propanamide] the figure was 118.033%.
Consider `CC(C)NS(=O)(=O)c1ccc(NC(=O)C(C)Cl)cc1` (centres unmarked) [6-B10, 2-chloro-N-{4-[(propan-2-yl)sulfamoyl]phenyl}propanamide], for which the “% of control remaining” value was determined as 103.122%.
Take `Cn1cc(C=C(C#N)C(=O)Nc2ccccc2F)c(-c2ccncc2)n1` [9-L15, 2-cyano-N-(2-fluorophenyl)-3-[1-methyl-3-(pyridin-4-yl)-1H-pyrazol-4-yl]prop-2-enamide]: the “% of control remaining” value is 78.2022%.
With `Cc1cccc(CC(=O)CCl)c1` [10-I19, 1-chloro-3-(3-methylphenyl)propan-2-one] the figure was 130.938%; with `N#C/C(C(=O)Nc1ccc(C(F)(F)F)cc1)=C(/O)C1CC1` [9-N22, (2Z)-2-cyano-3-cyclopropyl-3-hydroxy-N-[4-(trifluoromethyl)phenyl]prop-2-enamide], 65.618%; with `C=CC(=O)NCCS(=O)(=O)N1CCOCC1` [2-E14, N-[2-(morpholine-4-sulfonyl)ethyl]prop-2-enamide], 124.282%.
In the case of `CCOc1ccc(C=C(C#N)C(=O)Nc2cccc3ncccc23)cc1` [8-A07, 2-cyano-3-(4-ethoxyphenyl)-N-(quinolin-5-yl)prop-2-enamide], the “% of control remaining” value worked out at 131.452%.
As for `C=CC(=O)N1CCn2cccc2C1c1ccncc1` (centres unmarked) [3-M03, 1-[1-(pyridin-4-yl)-1H,2H,3H,4H-pyrrolo[1,2-a]pyrazin-2-yl]prop-2-en-1-one], the “% of control remaining” value was 98.2151%.
`C=CCNC(=O)C(C#N)=Cc1ccc(-c2ccc(F)cc2)s1` [9-C12, 2-cyano-3-[5-(4-fluorophenyl)thiophen-2-yl]-N-(prop-2-en-1-yl)prop-2-enamide]: the “% of control remaining” value is given as 113.858%.
`C=CC(=O)NC1CCS(=O)(=O)C(C)C1` (centres unmarked) [3-A10, N-(2-methyl-1,1-dioxo-1lambda6-thian-4-yl)prop-2-enamide]: the “% of control remaining” value came to 114.933%.
Take `CCCCNC(=O)C(C#N)=Cc1cccs1` [9-E17, N-butyl-2-cyano-3-(thiophen-2-yl)prop-2-enamide]: the “% of control remaining” value is recorded as 100.075%.
With `CC(Cl)C(=O)N[C@H]1CCC(=O)N[C@@H]1c1ccnn1C` (mixture of isomers) [6-B14, rac-2-chloro-N-[(2R,3R)-2-(1-methyl-1H-pyrazol-5-yl)-6-oxopiperidin-3-yl]propanamide] the figure was 102.78%; with `C=CC(=O)N1CCC(C(=O)N2CCC(NC(=O)NC)CC2)CC1` [2-H18, 3-methyl-1-{1-[1-(prop-2-enoyl)piperidine-4-carbonyl]piperidin-4-yl}urea], 121.149%; with `C=CC(=O)N(CC1CCOCC1)C1CC1` [2-I08, N-cyclopropyl-N-[(oxan-4-yl)methyl]prop-2-enamide], 111.401%.
Consider `C=CC(=O)NCC1CCN(C)C1=O` (centres unmarked) [2-B05, N-[(1-methyl-2-oxopyrrolidin-3-yl)methyl]prop-2-enamide], for which the “% of control remaining” value came to 107.92%.
For `O=C(CCl)Nc1c(Cl)cccc1C(F)(F)F` [5-B04, 2-chloro-N-[2-chloro-6-(trifluoromethyl)phenyl]acetamide], the “% of control remaining” value turned out to be 82.3315%.
With `CC(Cl)C(=O)NC1CCN(c2nnnn2C)CC1` (centres unmarked) [7-K08, 2-chloro-N-[1-(1-methyl-1H-1,2,3,4-tetrazol-5-yl)piperidin-4-yl]propanamide] the figure was 93.5636%.
Regarding `CCCn1c(N)c(C(=O)CCl)c(=O)n(C)c1=O` [10-H12, 6-amino-5-(2-chloroacetyl)-3-methyl-1-propyl-1,2,3,4-tetrahydropyrimidine-2,4-dione], the “% of control remaining” value is listed as 92.8125%.
For the compound `Cc1ccc(C)c(NC(=O)C(C#N)=Cc2ccc(N3CCCCC3)o2)c1` [9-D12, 2-cyano-N-(2,5-dimethylphenyl)-3-[5-(piperidin-1-yl)furan-2-yl]prop-2-enamide], the “% of control remaining” value came out at 93.1835%.
In the case of `CC(C)Oc1ccc2[nH]cc(C(=O)CCl)c2c1` [10-E03, 2-chloro-1-[5-(propan-2-yloxy)-1H-indol-3-yl]ethan-1-one], the “% of control remaining” value is on record as 110.313%.
Consider `C=CC(=O)N1CCC(C2CCOC2)C1` (centres unmarked) [1-H06, 1-[3-(oxolan-3-yl)pyrrolidin-1-yl]prop-2-en-1-one], for which the “% of control remaining” value stood at 99.1648%.

Source of the values: publication PMC11995724, “Antibiotic target discovery by integrated phenotypic and activity-based profiling of electrophilic fragments” (Cell chemical biology, 2025).
